Data reported in the supplement of paper PMC4967469.
IC50 is the fitted dose that halves viability relative to control wells, and lower means more sensitive; fits outside the tested doses are given as limits. For AUC the same curve is integrated over the 256-fold range of doses and scaled to a fraction; the more sensitive the line, the further below 1. For some assays here: A top dose marked as inferred was calculated from the reported fits. For some assays here: Drugs with an entry number were screened twice under separate entries, and the two screens often disagree.

How the values were obtained:
Assay in all cases: Viability of human cancer cell lines after 72 h of drug (GDSC screen)
[1] = compound: NC(=O)[C@@H](CCC(F)(F)F)N(Cc1ccc(-c2ncon2)cc1F)S(=O)(=O)c1ccc(Cl)cc1 [BMS-708163]; conditions: top dose 5 µM; screen: GDSC drug entry 1072; top dose inferred
Protocol: (§1)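 Human cancer cell lines in 384-well plates, medium with 10% serum, drug for 72 h over a 256-fold dose range (nine 2-fold or five 4-fold steps up to the top dose). Adherent lines were fixed and stained with the nucleic acid dye Syto60, suspension lines read with resazurin; signal relative to control wells, capped at 0 and 100%. One two-parameter sigmoid per drug and line, fitted in a mixed model over all curves with the slope shared within a line.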

[2] = compound: COc1cc2ncn(-c3cc(OCc4ccccc4S(C)(=O)=O)c(C#N)s3)c2cc1OC [KIN001-135]; conditions: top dose 5 µM; top dose inferred
Protocol: as §1

[3] = compound: C=CCc1cccc(/C=N/NC(=O)CN2CCN(Cc3ccccc3)CC2)c1O [PAC-1]; conditions: top dose 2.56 µM
Protocol: as §1

[4] = compound: C=C1C(=O)O[C@H]2[C@H]1CC/C(C)=C/CC[C@@]1(C)O[C@@H]21 [Parthenolide]; conditions: top dose 5 µM
Protocol: as §1

Row | Cell Line | AUC [1] | IC50 [1] | AUC [2] | IC50 [2] | AUC [3] | IC50 [3] | AUC [4] | IC50 [4]
1 | KMS-12-BM (myeloma, suspension) | 0.984 | > 5 µM | 0.991 | > 5 µM | 0.905 | 2.39 µM | 0.988 | > 5 µM
2 | KNS-42 (glioma, adherent) | 0.973 | > 5 µM | 0.978 | > 5 µM | 0.983 | > 2.56 µM | 0.984 | > 5 µM
3 | KNS-81-FD (glioma, adherent) | 0.917 | > 5 µM | 0.978 | > 5 µM | 0.98 | > 2.56 µM | 0.978 | > 5 µM
4 | KS-1 (glioma, adherent) | 0.979 | > 5 µM | 0.864 | > 5 µM | 0.972 | > 2.56 µM | 0.873 | > 5 µM
5 | KU812 (chronic myeloid leukaemia, suspension) | 0.988 | > 5 µM | 0.988 | > 5 µM | 0.988 | > 2.56 µM | 0.874 | 4.12 µM
6 | KURAMOCHI (ovary, adherent) | 0.936 | > 5 µM | 0.983 | > 5 µM | 0.909 | > 2.56 µM | 0.977 | > 5 µM
7 | KY821 (leukaemia, suspension) | 0.978 | > 5 µM | 0.992 | > 5 µM | 0.924 | > 2.56 µM | 0.963 | > 5 µM
8 | L-363 (myeloma, suspension) | 0.991 | > 5 µM | 0.99 | > 5 µM | 0.928 | > 2.56 µM | 0.967 | > 5 µM
9 | L-428 (Hodgkin lymphoma, suspension) | 0.993 | > 5 µM | 0.993 | > 5 µM | 0.785 | 0.96 µM | 0.99 | > 5 µM
10 | L-540 (Hodgkin lymphoma, suspension) | 0.99 | > 5 µM | 0.987 | > 5 µM | 0.845 | 1.56 µM | 0.986 | > 5 µM
11 | L-1236 (Hodgkin lymphoma, suspension) | 0.991 | > 5 µM | 0.986 | > 5 µM | 0.98 | > 2.56 µM | 0.981 | > 5 µM
12 | LAMA-84 (chronic myeloid leukaemia, suspension) | 0.986 | > 5 µM | 0.986 | > 5 µM | 0.972 | > 2.56 µM | 0.924 | > 5 µM
13 | LAN-6 (neuroblastoma, adherent) | 0.984 | > 5 µM | 0.98 | > 5 µM | 0.938 | > 2.56 µM | 0.911 | > 5 µM
14 | LB373-MEL-D (melanoma, adherent) | 0.983 | > 5 µM | 0.99 | > 5 µM | 0.987 | > 2.56 µM | 0.986 | > 5 µM
15 | LB647-SCLC (small cell lung carcinoma, semi-adherent) | 0.985 | > 5 µM | 0.938 | > 5 µM | 0.872 | > 2.56 µM | 0.965 | > 5 µM
16 | LB771-HNC (head and neck, adherent) | 0.982 | > 5 µM | 0.976 | > 5 µM | 0.981 | > 2.56 µM | 0.981 | > 5 µM
17 | LB831-BLC (bladder, adherent) | 0.986 | > 5 µM | 0.986 | > 5 µM | 0.986 | > 2.56 µM | 0.978 | > 5 µM
18 | LB996-RCC (kidney, adherent) | 0.941 | > 5 µM | 0.981 | > 5 µM | 0.975 | > 2.56 µM | 0.976 | > 5 µM
19 | LB1047-RCC (kidney, adherent) | 0.96 | > 5 µM | 0.98 | > 5 µM | 0.862 | > 2.56 µM | 0.982 | > 5 µM
20 | LB2241-RCC (kidney, adherent) | 0.979 | > 5 µM | 0.983 | > 5 µM | 0.931 | > 2.56 µM | 0.862 | > 5 µM
21 | LB2518-MEL (melanoma, adherent) | 0.987 | > 5 µM | 0.98 | > 5 µM | 0.981 | > 2.56 µM | 0.895 | > 5 µM
22 | LC4-1 (lymphoblastic leukaemia, suspension) | 0.984 | > 5 µM | 0.984 | > 5 µM | 0.926 | > 2.56 µM | 0.976 | > 5 µM
23 | LC-2-ad (lung adenocarcinoma, adherent) | 0.966 | > 5 µM | 0.985 | > 5 µM | 0.778 | 1.06 µM | 0.985 | > 5 µM

Row | Cell Line | AUC [1] | IC50 [1] | AUC [2] | IC50 [2] | AUC [3] | IC50 [3] | AUC [4] | IC50 [4]
24 | LNCaP-Clone-FGC (prostate, adherent) | 0.984 | > 5 µM | 0.981 | > 5 µM | 0.9 | > 2.56 µM | 0.984 | > 5 µM
25 | LOUCY (T-cell lymphoblastic leukaemia, suspension) | 0.992 | > 5 µM | 0.988 | > 5 µM | 0.781 | 0.863 µM | 0.875 | 3.43 µM
26 | LP-1 (myeloma, suspension) | 0.993 | > 5 µM | 0.993 | > 5 µM | 0.977 | > 2.56 µM | 0.977 | > 5 µM
27 | LS-123 (large intestine, adherent) | 0.963 | > 5 µM | 0.982 | > 5 µM | 0.928 | > 2.56 µM | 0.974 | > 5 µM
28 | LS-411N (large intestine, adherent) | 0.966 | > 5 µM | 0.961 | > 5 µM | 0.812 | 1.75 µM | 0.944 | > 5 µM
29 | LS-513 (large intestine, adherent) | 0.984 | > 5 µM | 0.986 | > 5 µM | 0.968 | > 2.56 µM | 0.987 | > 5 µM
30 | LS-1034 (large intestine, adherent) | 0.949 | > 5 µM | 0.985 | > 5 µM | 0.928 | > 2.56 µM | 0.984 | > 5 µM
31 | LU-65 (large cell lung carcinoma, suspension) | 0.987 | > 5 µM | 0.974 | > 5 µM | 0.982 | > 2.56 µM | 0.943 | > 5 µM
32 | LU-134-A (small cell lung carcinoma, suspension) | 0.987 | > 5 µM | 0.986 | > 5 µM | 0.862 | 2.43 µM | 0.95 | > 5 µM
33 | LU-139 (small cell lung carcinoma, suspension) | 0.982 | > 5 µM | 0.981 | > 5 µM | 0.882 | > 2.56 µM | 0.97 | > 5 µM
34 | LU-165 (small cell lung carcinoma, suspension) | 0.988 | > 5 µM | 0.985 | > 5 µM | 0.887 | > 2.56 µM | 0.988 | > 5 µM
35 | LXF-289 (lung adenocarcinoma, adherent) | 0.977 | > 5 µM | 0.986 | > 5 µM | 0.987 | > 2.56 µM | 0.963 | > 5 µM
36 | MC116 (B-cell lymphoma, suspension) | 0.999 | > 5 µM | 0.997 | > 5 µM | 0.853 | 1.15 µM | 0.999 | > 5 µM
37 | MC-CAR (haematopoietic neoplasm, suspension) | 0.966 | > 5 µM | 0.989 | > 5 µM | 0.812 | 1.19 µM | 0.969 | > 5 µM
38 | MDST8 (large intestine, adherent) | 0.987 | > 5 µM | 0.985 | > 5 µM | 0.975 | > 2.56 µM | 0.984 | > 5 µM
39 | ME-1 (acute myeloid leukaemia, suspension) | 0.955 | > 5 µM | 0.982 | > 5 µM | 0.772 | 1.06 µM | 0.973 | > 5 µM
40 | MEG-01 (chronic myeloid leukaemia, suspension) | 0.988 | > 5 µM | 0.986 | > 5 µM | 0.956 | > 2.56 µM | 0.957 | > 5 µM
41 | MFH-ino (soft tissue, adherent) | 0.978 | > 5 µM | 0.96 | > 5 µM | 0.983 | > 2.56 µM | 0.933 | > 5 µM
42 | MFM-223 (breast, adherent) | 0.986 | > 5 µM | 0.984 | > 5 µM | 0.988 | > 2.56 µM | 0.989 | > 5 µM
43 | MHH-PREB-1 (B-cell leukaemia, suspension) | 0.978 | > 5 µM | 0.984 | > 5 µM | 0.905 | > 2.56 µM | 0.849 | 3.17 µM
44 | ML-2 (acute myeloid leukaemia, suspension) | 0.99 | > 5 µM | 0.966 | > 5 µM | 0.85 | 1.63 µM | 0.909 | > 5 µM
45 | MLMA (hairy cell leukaemia, semi-adherent) | 0.981 | > 5 µM | 0.975 | > 5 µM | 0.948 | > 2.56 µM | 0.855 | 4.04 µM
46 | MN-60 (B-cell leukaemia, suspension) | 0.988 | > 5 µM | 0.988 | > 5 µM | 0.973 | > 2.56 µM | 0.984 | > 5 µM
